This is one part of the list. At the low end of the ranking the order means little.

The assay addresses SIX1 homeodomain (reference allele) (UniProt Q15475). Kind of assay: universal protein binding microarray. The note with it: Universal all-10-mer PBM (8x60K, AMADID 030236), 300 nM GST-tagged protein, Alexa Fluor 488 anti-GST; buffer, salt, pH and temperature not stated; high values mean tight binding; most listed sequences are background and not binding sites; double strand, one strand shown.
In the case of TCAAACAA, the binding signal is -0.0903 E-score. With AGCCGGCT the figure was 0.173 E-score.

For the sequence GACTGCAA, the binding signal was -0.265 E-score. To ACTTAGTG belongs -0.161 E-score; to GGACGAAC, 0.00931 E-score.

As to CTGCCAAG, the binding signal is -0.158 E-score.

Take CTAAAATA: the binding signal turned out to be 0.107 E-score.

With ATCTATAC, the binding signal was 0.35 E-score.

Regarding ATACGGAG, the binding signal stood at 0.193 E-score. With ACGATGAG the figure was 0.0617 E-score; with CACTACTG, -0.018 E-score; with ACCATAAA, -0.0525 E-score. With GACCACCC the figure was -0.0483 E-score; with GCCTTGCC, -0.165 E-score. To CTCGCGCC belongs -0.184 E-score; to ATTAAATG, 0.061 E-score; to GAGAAAGC, -0.0983 E-score. Consider CAGACGGC, for which the binding signal is -0.0992 E-score. With ACAACAGC the figure was -0.183 E-score; with CCATCGCG, 0.016 E-score; with GTCCTTAA, -0.0848 E-score. With CGAAAACC the figure was -0.0724 E-score; with AGCTTCTA, -0.102 E-score. With TGCCAGAA the figure was -0.0959 E-score; with AAATTGAG, -0.106 E-score; with GATTAAAA, 0.109 E-score. Turning to ACTGGGGG, the binding signal was -0.0792 E-score. To AGTGCATG belongs 0.0879 E-score; to CTGACATC, -0.0778 E-score; to ACCAAACG, -0.271 E-score. With TACGGAGA the figure was 0.054 E-score; with AGAGCATA, -0.0854 E-score. With CATTCAGC the figure was -0.164 E-score. With ATGCGGCA, the binding signal was -0.151 E-score. With GGAGCAAC the figure was -0.241 E-score. With ATTCCTCA the figure was -0.111 E-score; with CTTACAGA, -0.215 E-score. To CTGGGGAA belongs -0.269 E-score; to CAGCATGC, -0.281 E-score.

Take CCCCCCTA: the binding signal came to 0.0367 E-score. To ACTTACTG belongs -0.0208 E-score. With CATAGTGA the figure was 0.0324 E-score. With ATATAGAT the figure was 0.287 E-score; with AAGTGTTC, -0.254 E-score. As for GCAGAGCA, the binding signal was -0.249 E-score. As to GCGACATA, the binding signal is -0.0864 E-score.

Take CCGAGGCG: the binding signal is 0.039 E-score. With TGCACACA the figure was -0.122 E-score. With CCATCGGG the figure was 0.0998 E-score; with GCAGCCAC, -0.269 E-score; with CACTCGGG, -0.0465 E-score. With AAACTGGG the figure was -0.243 E-score; with AATCAGAA, -0.219 E-score. For AGACTGGA, the binding signal is -0.0543 E-score.

Turning to GCCAAAGC, the binding signal was -0.231 E-score.

Regarding ATGTCGGG, the binding signal was -0.031 E-score. To CAGACACC belongs 0.291 E-score; to AATTAGGA, -0.108 E-score; to CCGCACCA, -0.0521 E-score.

As for ACAACTCC, the binding signal is -0.147 E-score. With CAACTACA the figure was 0.0485 E-score; with GCTAATCC, 0.208 E-score. To GAGTAACC belongs -0.00546 E-score. To GTCAGTGA belongs 0.0038 E-score. Consider AATCTTCT, for which the binding signal is -0.0563 E-score. With CCGCCACA the figure was -0.136 E-score; with GGTAACAC, 0.0196 E-score; with CTTTGGTC, -0.0976 E-score. With GTTAGATA, the binding signal is 0.248 E-score. Regarding AGACGTGA, the binding signal was -0.185 E-score. In the case of CGACAAGC, the binding signal was -0.116 E-score. With TCAGCTCA the figure was 0.162 E-score; with ATTGTATA, 0.308 E-score; with TCCTTTCA, -0.207 E-score.

On to GAGTGCTA, for which the binding signal came to 0.0175 E-score. To AAGCAACC belongs -0.0903 E-score; to AATGACGA, -0.00169 E-score.

Turning to AACCTCCT, the binding signal was -0.135 E-score.

Turning to GAACGCAA, the binding signal came out at 0.00529 E-score. To ACTGTCAG belongs -0.171 E-score.

With AATCGCAT, the binding signal was found to be 0.0704 E-score.

Take GCGACGCC: the binding signal is -0.157 E-score. With GAGAGCGC the figure was 0.087 E-score. To CGGAATGC belongs -0.24 E-score; to CCAATGTA, -0.0376 E-score. Consider CGTTCCAC, for which the binding signal was -0.0892 E-score. As for CCCCCAAA, the binding signal is -0.218 E-score. With ATGCCCTA the figure was -0.0897 E-score; with TGTTTTAA, -0.274 E-score. With TCATGGAA the figure was -0.166 E-score.

On to ACAACCAT, for which the binding signal is -0.101 E-score. As for CCCTTAAG, the binding signal amounted to 0.00061 E-score. To ATGAAGCA belongs -0.0687 E-score; to GAGACAGC, -0.0475 E-score.

Take GCCGTCGA: the binding signal is -0.0394 E-score. Take GGGGGACC: the binding signal was -0.286 E-score. With AGAAGATA the figure was 0.201 E-score. To CCACATTC belongs -0.16 E-score; to GCCACCCC, 0.0641 E-score; to ACAACGGA, 0.0872 E-score.

Take CCCATAGG: the binding signal was 0.0598 E-score. With TAATTCTA the figure was 0.0669 E-score; with AACAGAGT, -0.258 E-score; with GATGGTCC, -0.234 E-score. To AGCCCTTA belongs -0.24 E-score; to ACGGCGCC, -0.249 E-score; to ACCACCCT, -0.0732 E-score.

Regarding ATCTGGCC, the binding signal came to 0.181 E-score.

Regarding AGCGGTTC, the binding signal is -0.262 E-score.

On to AGCCAACG, for which the binding signal is -0.261 E-score.

The values are drawn from article PMC10668032.
